Assay in all cases: Primary Screen for Target Class Profiling of Small Molecule Inhibitors of Methyltransferases
Assay [1] deals with Glycine N-methyltransferase (Homo sapiens) (UniProt Q14749). To be noted: purified enzyme, MTase-Glo SAH luminescence; measured here: GNMT inhibition; at 40 µM; stronger effect = lower value. In a few lines: (§1)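 Each enzyme was reacted with SAM and its substrate, with compounds tested once at 40 uM; SAH formed was read by MTase-Glo luminescence.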
Assay [2] deals with Guanidinoacetate N-methyltransferase (Homo sapiens) (UniProt Q14353). The conditions noted are these: purified enzyme, MTase-Glo SAH luminescence; measured here: GAMT inhibition; at 40 µM; stronger effect = lower value. In a few lines: as §1
In assay [3] the target is Histamine N-methyltransferase (Homo sapiens) (UniProt P50135). The conditions noted are these: purified enzyme, MTase-Glo SAH luminescence; measured here: HNMT inhibition; at 40 µM; stronger effect = lower value. In outline:
as §1

Assay [4] deals with Nicotinamide N-methyltransferase (Homo sapiens) (UniProt P40261). The conditions noted are these: purified enzyme, MTase-Glo SAH luminescence; measured here: NNMT inhibition; at 40 µM; stronger effect = lower value. In a few lines: as §1
Assay [5] concerns the target Phenylethanolamine N-methyltransferase (Homo sapiens) (UniProt P11086). To be noted: purified enzyme, MTase-Glo SAH luminescence; measured here: PNMT inhibition; at 40 µM; stronger effect = lower value. In a few lines:
as §1

This is one part of the list. The main result of the screen is listed elsewhere. These columns were measured beside it and carry no call.
On the % scale 0 is the no-effect control and ±100 the full control effect.

Turning to `CCOCCCNC(=O)CCc1nnc2n(Cc3ccc(Cl)cc3)c(=O)c3ccccc3n12`, the activity change, negative = inhibition is -11.1% in assay [1]; 4.74% in assay [2]; 0.741% in assay [3]; 5.74% in assay [4]; -1.32% in assay [5].

Consider `COc1ccccc1NC(=O)Cn1nc2n(CCC(C)C)c(=O)c3ccccc3n2c1=O`, for which the activity change, negative = inhibition in assay [1] is 1.42%; in assay [2], 2.4%; in assay [3], 6.51%; in assay [4], -1.45%; in assay [5] it was 2.11%.

Consider `CC1(C(=O)NC2CCCCCCC2)Cn2c(cc3sccc32)C(=O)N1Cc1cccc(F)c1` (stereo not given), for which the activity change, negative = inhibition in assay [1] worked out at 5.97%; in assay [2], 1.6%; in assay [3] it was 10.1%; in assay [4], 4.95%; in assay [5] it was 4.02%.

For `CCN1C(=O)c2cc(C(=O)Nc3ccc(C)c(C)c3)nn2CC1(C)C(=O)NC1CCCC1` (stereo not given), the activity change, negative = inhibition was 2.36% in assay [1]; 0% in assay [2]; -5.23% in assay [3]; 0.571% in assay [4]; 2.1% in assay [5].

In the case of `CC1(C(=O)NC2CCCCCCC2)Cn2c(ccc2-c2ccco2)C(=O)N1CCN1CCOCC1` (stereo not given), the activity change, negative = inhibition is 5.15% in assay [1]; 0% in assay [2]; 10.8% in assay [3]; 13.6% in assay [4]; 6.63% in assay [5].

For the molecule `COc1c2c(c(C)c3c1C(=O)OC3)O[C@@]1(C)C[C@@H](OC(C)=O)[C@]34O[C@](OC)(CC[C@]3(C)[C@H]1C2)OC4(C)C`, the activity change, negative = inhibition in assay [1] is -24.3%; in assay [2], -20.5%; in assay [3] it was 1.98%; in assay [4], -69.6%; in assay [5], -6.81%.

On to `Cc1cccc(CNC(=O)Cn2ccc3cc(S(=O)(=O)N4CCCC4)ccc32)c1`, for which the activity change, negative = inhibition in assay [1] was 0.567%; in assay [2] it was 3.32%; in assay [3], -3.07%; in assay [4], -2.23%; in assay [5], -1.4%.

Consider `CCCS(=O)(=O)N1CCCCC1c1nc(-c2cnccn2)n[nH]1` (stereo not given), for which the activity change, negative = inhibition in assay [1] is 0.813%; in assay [2] it was -0.368%; in assay [3], 0.234%; in assay [4] it was 2.29%; in assay [5] it was 2.75%.

As to `C[C@H]1[C@@H]2[C@@H](O)C([C@H](C)C(=O)NC3CCCCC3)CC[C@@]2(C)CC[C@@H]1NC(=O)C1CC1` (stereo not given in full), the activity change, negative = inhibition in assay [1] is -0.486%; in assay [2], -4.83%; in assay [3] it was -0.802%; in assay [4], -3.76%; in assay [5], -0.799%.

Regarding `CSc1cccc(NC(=O)c2cc3n(n2)CC(C)(C(=O)NC2CCCCCC2)N(C)C3=O)c1` (stereo not given), the activity change, negative = inhibition in assay [1] stood at 4.22%; in assay [2], 0%; in assay [3], 6.19%; in assay [4], 1.65%; in assay [5] it was 4.74%.

Take `O=C(Cn1nc2n(Cc3ccc(F)cc3)c(=O)c3ccccc3n2c1=O)Nc1ccc2c(c1)OCO2`: the activity change, negative = inhibition in assay [1] was -1.98%; in assay [2], -0.641%; in assay [3] it was 2.5%; in assay [4], -2.12%; in assay [5], -3.76%.

For `Cc1cccc2ncc(C(=O)N3CCC4(CCNC(=O)CC4)CC3)c(=O)n12`, the activity change, negative = inhibition in assay [1] was 2.11%; in assay [2] it was 0.813%; in assay [3] it was 0.696%; in assay [4] it was 3.23%; in assay [5], 0.951%.

As to `CCc1cc2c(cc3n2CC(C)(C(=O)NC2CCCCC2)N(CCCc2ccccc2)C3=O)s1` (stereo not given), the activity change, negative = inhibition in assay [1] was -0.023%; in assay [2], -1.99%; in assay [3], 9.34%; in assay [4], 5.88%; in assay [5], 0.2%.

For the molecule `COc1ccc(O)c(CN2CCCC(Nc3ccc(F)cc3)C2)c1` (stereo not given), the activity change, negative = inhibition in assay [1] is -6.83%; in assay [2], -0.716%; in assay [3] it was -3.71%; in assay [4], -1.85%; in assay [5] it was -13.2%.

Take `CN1CCN(CCCN2C(=O)c3cc4sccc4n3CC2(C)C(=O)NC2CCCCC2)CC1` (stereo not given): the activity change, negative = inhibition is 6.07% in assay [1]; 0.155% in assay [2]; 7.19% in assay [3]; 5.59% in assay [4]; 3.76% in assay [5].

Consider `CC1(C)N=C(c2ccccc2)C(=O)N1CC(=O)N1CCN(c2ccccc2F)CC1`, for which the activity change, negative = inhibition in assay [1] was -6.93%; in assay [2] it was -0.108%; in assay [3] it was -0.342%; in assay [4], -1.53%; in assay [5], 9.24%.

`Cc1nc(C)c(C(=O)N2CCc3onc(-c4cccc(F)c4)c3C2)s1`: the activity change, negative = inhibition in assay [1] is -5.23%; in assay [2], -1.74%; in assay [3], -0.535%; in assay [4], -2.08%; in assay [5], 0.219%.

With `CC(=O)O[C@H]1C[C@@H](O)C(C)(C)C2C[C@@H](OC(C)=O)[C@@]3(C)C4=CCC(C(CO)CC(O)C5OC5(C)C)[C@]4(C)CCC3[C@]21C` (stereo not given in full), the activity change, negative = inhibition was 0% in assay [1]; 6.25% in assay [2]; 8.76% in assay [3]; -6.48% in assay [4]; 6.09% in assay [5].

On to `O=C(Cn1nc2n(Cc3ccccc3)c(=O)c3ccccc3n2c1=O)c1ccc(F)cc1`, for which the activity change, negative = inhibition in assay [1] was -0.573%; in assay [2] it was 0.656%; in assay [3] it was 4.72%; in assay [4], -6.29%; in assay [5], -0.972%.

For the molecule `O=C(O)c1ccncc1Nc1nn(CCN2CCC(F)(F)CC2)c2ccc(F)cc12`, the activity change, negative = inhibition in assay [1] is -11.6%; in assay [2], -0.63%; in assay [3], 2.69%; in assay [4] it was -18.1%; in assay [5] it was -5.75%.

As for `Cn1nc(-c2cccc(F)c2)c(N2CCCCC2)c1NC(=O)Nc1ccccc1`, the activity change, negative = inhibition was -3.64% in assay [1]; -4.99% in assay [2]; -2.05% in assay [3]; -9.13% in assay [4]; 9.29% in assay [5].

As for `CN1CC[C@H]2CN(C(=O)c3scc4c3OCCO4)C[C@@]2(C(=O)O)C1`, the activity change, negative = inhibition is -5.3% in assay [1]; -7.75% in assay [2]; -4.49% in assay [3]; -11.7% in assay [4]; -6.69% in assay [5].

With `CC(=O)N1CCC(N2CC3(C2)C(=O)N(CCCN2CCCC2=O)C(=O)[C@@H]2C[C@@H](O)CN23)CC1`, the activity change, negative = inhibition is -0.22% in assay [1]; 0.612% in assay [2]; 2.01% in assay [3]; -2.9% in assay [4]; 1.15% in assay [5].

`COc1ccc(CC(=O)NC2CCN(c3nc4ncccc4o3)C2)cc1` (stereo not given): the activity change, negative = inhibition in assay [1] was -5.01%; in assay [2], -9.63%; in assay [3] it was -2.2%; in assay [4], -2.9%; in assay [5], -9.71%.

As to `CCC[C@@H](NC(=O)N1C(=O)C(CC)(CC)[C@@H]1Oc1ccc(C(=O)N2CCN(C)CC2)cc1)c1ccc2c(c1)OCO2`, the activity change, negative = inhibition in assay [1] was -6.83%; in assay [2], 13.7%; in assay [3], 5.72%; in assay [4], -7.62%; in assay [5], 5.34%.

Regarding `Cc1ccc(C)c(CN2CC(=O)N(Cc3ccccc3)c3ccccc3S2(=O)=O)c1`, the activity change, negative = inhibition in assay [1] came to 2.83%; in assay [2], 0%; in assay [3] it was 0.286%; in assay [4], 1.75%; in assay [5], 3.09%.

On to `CC1CCN(C(=O)CC2Sc3ncccc3N(C)C2=O)CC1` (stereo not given), for which the activity change, negative = inhibition in assay [1] was 2.03%; in assay [2], -0.172%; in assay [3], 1.31%; in assay [4], 1.61%; in assay [5], -0.418%.

`CN(Cc1ccccc1)C(=O)CCn1ccc2cc(S(=O)(=O)N3CCCCC3)ccc21`: the activity change, negative = inhibition in assay [1] was 1.93%; in assay [2], 7.02%; in assay [3], -3.91%; in assay [4] it was -3.69%; in assay [5], -1.43%.

In the case of `CC(C)n1c(=O)c2ccc(C(=O)NC3CCCC3)cc2n2c(=O)n(Cc3cccc(Cl)c3)nc12`, the activity change, negative = inhibition was -0.822% in assay [1]; -1.27% in assay [2]; 2.62% in assay [3]; -1.03% in assay [4]; -3.89% in assay [5].
